# Data reported in publication PMC10668032.
# This is one part of the list. At the low end of the ranking the order means little.
# Target: SIX1-Q177R homeodomain (UniProt Q15475)
# Assay: universal protein binding microarray
# Conditions: Universal all-10-mer PBM (8x60K, AMADID 030236), 300 nM GST-tagged protein, Alexa Fluor 488 anti-GST; buffer, salt, pH and temperature not stated; high values mean tight binding; most listed sequences are background and not binding sites; double strand, one strand shown
row,Sequence,binding signal [E-score]
1,CTAGCGAG,-0.112
2,AAGTGTAT,0.317
3,TCAACAAA,0.0214
4,CCGGCGGA,0.129
5,CCAAGGCG,0.0015
6,ACTCGACA,0.226
7,AACACTAT,0.295
8,ATACGTAA,-0.33
9,AACATCCG,0.0408
10,GCTACCCA,0.0437
11,ATTTGTGG,-0.0213
12,CCCGGAAC,0.099
13,AAAAAAGA,-0.131
14,GGTCCCGA,-0.141
15,TCCGGACA,0.107
16,CGCCGACA,0.209
17,AGTTTGGG,-0.0462
18,CGTCCCAC,0.0541
19,CAAGCTGG,0.00327
20,GTACCGTA,-0.082
21,CCCTCTTA,-0.0686
22,CTCCCGCA,0.155
23,GTATTTCA,-0.0378
24,AATCATCA,-0.305
25,CACGTGCG,0.171

row,Sequence,binding signal [E-score]
1,CCAACTAA,-0.108
2,TGCGGAAA,-0.116
3,ATGTACTG,-0.135
4,GTAGATGA,-0.0743
5,AAATACGC,-0.117
6,GTTCAGTA,0.107
7,CATACATG,0.0434
8,GTAGGAAC,0.00405
9,AAGATCGT,-0.171
10,CTCGTCTA,-0.181
11,AGAACTAA,-0.0717
12,GCTACTCC,0.113
13,GGAGTACC,0.218
14,ACGTATTC,0.127
15,GACTCGCC,0.0639
16,ACTCCAGG,0.228
17,CGATTCAA,-0.164
18,ACCGCTCT,-0.0829
19,CATATATG,-0.0473
20,AGTTTCTG,-0.0192
21,GCTTCCAA,-0.235
22,ATGAGCAC,0.108
23,TAGGGACA,0.0681
24,CGGTTGCA,-0.0304
25,ATCTCCCA,-0.0873

row,Sequence,binding signal [E-score]
1,GTCGAGGA,-0.0114
2,CGATCCGA,0.03
3,GGATAAAA,0.0625
4,CATGGCTA,-0.132
5,CACTTCAC,0.154
6,GAACATCA,-0.349
7,ACCGACAC,0.425
8,CCATCCGA,0.0548
9,GGGTCCAC,0.164
10,AAGCCCGC,0.0149
11,AGTTAGAG,-0.163
12,CACAGTAC,0.11
13,GGCCCAAA,-0.112
14,CCTCACTC,-0.059
15,CGGGGATA,0.202
16,CATCCCAC,-0.162
17,ATGAGGTC,-0.143
18,CAATCTCA,-0.0571
19,AAGGGCGA,-0.198
20,CCCCAAGC,0.228
21,CTGCCCTA,-0.0917
22,GGTCCCAC,0.141
23,ACCCCTTC,0.243
24,CAGAACTA,-0.15
25,TCCAACGA,-0.206

row,Sequence,binding signal [E-score]
1,AGGACACC,0.484
2,GGTCCAAC,-0.0925
3,CATGGATA,0.0901
4,GCGTCCCA,-0.115
5,CTCGGCAC,0.194
6,ACATAGAC,-0.0858
7,AACAAGAA,-0.14
8,GTGAGAAA,-0.0648
9,GACGACTA,-0.101
10,AAAAGACA,0.12
11,TGGGTCAA,0.122
12,CCCCTACA,0.279
13,AACTACAA,0.134
14,CCTCTCAA,0.0339
15,CCTATACC,0.0409
16,ACTGTCGA,0.0829
17,GAAGAAGC,-0.245
18,CTATCACC,-0.0237
19,CACCAGAG,0.195
20,AAGGCTCA,-0.155
21,GGCCTAAC,-0.071
22,CATGGGGG,0.217
23,ATGAGCGG,-0.23
24,CGTGACGC,0.051
25,AGGGTATC,0.363

row,Sequence,binding signal [E-score]
1,CACCGAAC,0.335
2,CCTCCTAC,0.135
3,CCTTAATC,-0.00722
4,CGAAATGA,-0.227
5,AACCTAGA,-0.158
6,ACGGGTCT,0.0146
7,AGTTGAAC,-0.00728
8,GCACTCGC,-0.0479
9,ATTTAGGC,-0.169
10,ACAATGCT,-0.0494
11,GCGTGACA,0.254
12,AAGCGAAG,-0.142
13,CCTGTCCC,-0.105
14,ATACGCAA,-0.125
15,AATGTACA,0.104
16,CGTCGCAC,0.0462
17,GGGATCTA,0.125
18,TGCTGCCA,-0.0255
19,CTAGAGAA,-0.0106
20,GGCTCGAA,-0.222
21,ATCATGAG,0.00787
22,GACACCAA,0.475
23,AAAATGAT,-0.185
24,AATGAGTG,0.0655
25,ACACTCAG,0.387

row,Sequence,binding signal [E-score]
1,CATCTGGC,-0.251
2,CTTCGACC,-0.116
3,CGTGACCC,0.211
4,GCAAATGA,-0.146
5,CGGCGTAC,0.209
6,ACGACCTA,0.043
7,CCTACGAA,-0.0085
8,GGCTTATA,-0.307
9,TACGCTAA,-0.0402
10,AGACCTAT,-0.265
11,ATAGTACA,0.312
12,CGGGACTC,0.0466
13,TCCCACAA,-0.0946
14,ATAGTCAC,0.0358
15,AATACCGG,0.0689
16,AAGCTGCA,-0.171
17,ATTCGGCG,-0.0858
18,CATGAAAG,-0.0869
19,AATTTCCC,-0.249
20,GACGGCGC,-0.0872
21,CCTGACAC,0.452
22,ACGCAGGA,-0.0285
23,AATTTCGG,-0.0424
24,CGAACAAG,-0.177
25,CGAAGAGC,-0.263

row,Sequence,binding signal [E-score]
1,CGATAGAG,-0.0203
2,TACAATCA,0.0508
3,CGTATACA,0.241
4,CGTGCAGC,-0.00379
5,GAAGTATC,0.106
6,ACGTCATA,-0.219
7,TATCATAA,0.0598
8,AAGGTATT,-0.0118
9,GTGTAGTA,0.464
10,AGCAAGGA,-0.0326
11,GAAGCCGA,-0.0771
12,CGGCCACA,0.0248
13,AGAGCGAT,-0.371
14,GAATGCAC,0.113
15,AGTAGCTG,-0.0586
16,AATTCACC,-0.116
17,CACCTATG,0.254
18,GCGGTCAA,-0.124
19,AGATAGCA,-0.244
20,CACCGAGC,0.277
21,ATAACGGC,-0.166
22,CTTTGCAA,-0.143
23,CGGTAAGA,-0.179
24,CAGTGGCG,-0.00848
25,AATCCCAT,-0.0224

row,Sequence,binding signal [E-score]
1,AAACGCCA,-0.0442
2,AAAGCATC,-0.223
3,CATAAGGA,-0.0341
4,AAATTATA,0.0853
5,CGGCAATA,-0.149
6,TCGGGAAA,-0.0874
7,ATCTCGGC,-0.0643
8,ATGGAGGC,-0.153
9,GCGAACCC,0.174
10,AAGTCATG,-0.19
11,CCGGCCCC,-0.0787
12,GCCCAGAC,-0.115
13,ACTGTTGA,-0.19
14,GAGTGAAA,-0.0792
15,CCGCCGCA,-0.0509
16,CCCTTTTC,-0.0656
17,AGCTCAAA,-0.169
18,ACCTGGCA,0.02
19,ATTACGCC,0.0329
20,TAGCGAAA,-0.316
21,CTGAGGTC,-0.268
22,CTGTACAA,-0.0788
23,ATGCCGCC,-0.0731
24,CGATCTCA,-0.065
25,GTAGCCAA,-0.175

row,Sequence,binding signal [E-score]
1,TGCCCGAA,-0.0653
2,ATGTACCC,0.19
3,AATAACCT,-0.0418
4,CTTGCATA,-0.275
5,GGCGGTTA,-0.0932
6,AGACGCCA,-0.0255
7,CATACGGG,0.058
8,TGAATTCA,0.0157
9,CATCATAA,-0.0873
10,CAAGATTC,-0.135
11,AAAATATC,-0.224
12,AATCAAAT,-0.0847
13,CATGTCAA,-0.395
14,AACGGACA,0.278
15,CTACCCGA,0.0678
16,CGGCTCCC,0.0548
17,AACCCGTT,-0.101
18,TCCATGCA,-0.0817
19,GCGAGATA,-0.0482
20,GTAACGAC,0.0529
21,AACCGATT,-0.122
22,CAGGGCGA,0.0893
23,CGTGACTA,-0.00741
24,AATCACCC,0.047
25,ATTCGGTC,-0.234

row,Sequence,binding signal [E-score]
1,GACAACAC,0.386
2,CATTCTAC,-0.0103
3,CGACCAAA,0.00806
4,AACATTCA,-0.105
5,CGACGTGC,-0.125
6,CCGAATAC,0.163
7,AGTGTAAC,0.419
8,ATATGAAC,0.0437
9,CCGGTTTA,-0.0139
10,ACTGGTAT,0.269
11,GGCGGCTA,-0.0763
12,GCTTAAGC,0.0359
13,GTGAACTA,-0.0722
14,GCACCCGA,0.235
15,CACTTTTC,0.0265
16,GTGGGCTA,-0.015
17,CCATGAGC,-0.118
18,CTGGGCCA,-0.156
19,ATAAGCTC,-0.0301
20,CTATTGTA,-0.0301
21,AGAATGAT,-0.171
22,AAGACATG,-0.0594
23,GAACGCCC,-0.018
24,GTTACCGA,-0.0906
25,CAGAGTAG,0.141

row,Sequence,binding signal [E-score]
1,ACACTTGC,0.363
2,CTCATTGA,-0.136
3,CACTAATG,0.164
4,CAGCTGGA,-0.093
5,ATTATAGA,-0.133
6,AGGCTTTA,-0.211
7,AATCTTGG,-0.133
8,AGGGCTAC,0.0065
9,GGTTGTCA,0.0679
10,CCGAAACG,-0.0683
11,ATCTCAAA,-0.127
12,ACTCTGTA,0.0722
13,ATCTAGGA,-0.189
14,TTCCTCAA,-0.183
15,GGGTGGGA,0.103
16,CAGTAATA,-0.178
17,ACAAGTGA,0.0375
18,AAATTGGG,-0.0601
19,GAATAATC,-0.151
20,AAAGCTTT,-0.196
21,TGGCCCAA,-0.263
22,AGACAATA,-0.213
23,GTTACCAA,-0.106
24,AGCGCACC,0.0579
25,GTTCGTGA,0.0181

row,Sequence,binding signal [E-score]
1,ACAAGGGA,0.118
2,CGACGAAC,-0.000705
3,CAAACTGG,-0.0176
4,GAAATTGC,-0.187
5,ATATTAGG,-0.00895
6,AGCGTTGG,0.0632
7,CCACGATA,-0.0696
8,CAACTGCA,-0.223
9,ACCACGTG,0.194
10,AAGGATTG,-0.0352
11,AGCACAAG,-0.246
12,CCAGAGCC,-0.142
13,ATCCTTAG,0.161
14,CGTAAGGC,-0.0824
15,AATGCAGC,-0.324
16,AAACATGA,-0.115
17,AGCCCGCG,-0.0901
18,GTTTAACA,0.0476
19,CAGCACAG,-0.0886
20,GTACCAGA,0.0666
21,AGTCCCAG,-0.141
22,AAGTGCCA,0.0942
23,CAGTGCAA,0.0576
24,AGCGGCGC,-0.0366
25,CCACGCGG,-0.147

row,Sequence,binding signal [E-score]
1,CCTGGCAA,-0.0799
2,ATCACTAA,0.00347
3,CATTCGCA,-0.102
4,ATCCTGTA,-0.0936
5,AGTAGTCC,-0.141
6,ACTACAAG,0.025
7,GGTATATA,0.191
8,CCCAGACC,-0.009
9,ATTTTGCC,-0.132
10,TATGGACA,0.167
11,GCTTATAA,-0.286
12,TAATTTAA,-0.0893
13,AATCAATC,0.00158
14,CCAGATGC,-0.0185
15,ACGTTACG,-0.168
16,ACCGGAAG,-0.0455
17,GCTCGTCA,-0.0289
18,CAGTTGAA,-0.0659
19,AAGGGCAG,-0.185
20,ATGTCCGC,-0.206
21,ATATCCTG,0.142
22,AAATCATT,-0.264
23,TCATATCA,-0.109
24,ATGGGCTA,-0.16
25,ACCCCGAT,0.229

row,Sequence,binding signal [E-score]
1,CAGATGGG,-0.105
2,GCGCGTGA,-0.0383
3,ACGAAGTG,0.0901
4,GGCCTGCA,-0.217
5,TGGCGTAA,0.0397
6,ATGGCTCA,-0.136
7,ACCAGCGG,0.0195
8,CCTGGGCA,-0.0856
9,GGGGACAC,0.41
10,CTCCTTAC,0.0451
11,AGGACATC,-0.254
12,AGAGCTAA,-0.27
13,AAACTCGC,-0.104
14,CGTAGGTA,0.209
15,GCGTGTTA,0.387
16,GAGGCGCA,-0.0558
17,TAATCCCA,0.119
18,AGACGAAT,-0.152
19,GCTAGGAC,0.0111
